# In the BET-seq Pho4 binding data (Le et al. 2018):
# This is one part of the list. These are noisy estimates, calculated here from bound and input reads.
# Target: T1, Pho4 (S. cerevisiae) (UniProt P07270)
# T1 sequence: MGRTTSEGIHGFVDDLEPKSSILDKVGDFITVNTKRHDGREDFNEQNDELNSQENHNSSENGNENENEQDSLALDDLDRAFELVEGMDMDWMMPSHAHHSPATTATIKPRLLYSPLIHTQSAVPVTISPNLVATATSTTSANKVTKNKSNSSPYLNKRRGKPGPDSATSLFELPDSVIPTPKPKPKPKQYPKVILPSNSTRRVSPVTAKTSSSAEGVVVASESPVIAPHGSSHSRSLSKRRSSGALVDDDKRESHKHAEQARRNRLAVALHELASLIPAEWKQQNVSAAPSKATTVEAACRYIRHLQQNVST
# Experiment: relative binding free energy (BET-seq); higher = weaker binding
# Conditions: reference: library average
row,Sequence,relative binding free energy [kcal/mol]
1,AGTGGCACGTGGGCAT,-0.2
2,GTTGGCACGTGCGGTG,-0.04
3,TTCAGCACGTGACGTG,0.16
4,TTGTTCACGTGTACGC,0.24
5,TCTGTCACGTGTATAT,-0.03
6,ATAATCACGTGTTAAG,0.11
7,TTCTTCACGTGTGGTT,0.37
8,TTTCACACGTGATTAT,0.28
9,GTGTGCACGTGTTCTG,0.05
10,TATGGCACGTGAGTAA,0.13
11,ATGGTCACGTGTAGGC,0.18
12,TAAGTCACGTGGGCTG,0.04
13,CGGGACACGTGGGGCT,-0.17
14,AATTACACGTGGGCAG,0.2
15,ATAGTCACGTGAGCGG,0.29
16,TTTGTCACGTGTGGAC,0.08
17,GGGAGCACGTGGGTCA,-0.23
18,TAAGTCACGTGTAGTT,0.17
19,TGGGGCACGTGTCTCG,-0.1
20,GGAGGCACGTGGCATG,-0.19
21,CGTGGCACGTGAGGAT,0.17
22,ATCAGCACGTGTTGGA,-0.09
23,GTCGTCACGTGAGTCT,0.34

row,Sequence,relative binding free energy [kcal/mol]
1,AGATGCACGTGGGGCG,-0.07
2,CAAGGCACGTGTTGAG,0.01
3,GGTGGCACGTGACCGT,-0.08
4,TGTTACACGTGGCTGA,0.06
5,CAATTCACGTGTATGT,0.16
6,GGTAACACGTGTGCGT,0.03
7,AGGATCACGTGTTGGT,0.22
8,ATATTCACGTGCTGTA,0.11
9,GGCATCACGTGGAGGT,0.13
10,GGGGGCACGTGAACTG,0.06
11,AGGTTCACGTGGCATA,0.22
12,CTTAGCACGTGGATGG,-0.16
13,TGCTGCACGTGTATGT,0.18
14,GGGGGCACGTGTGAGA,0.09
15,ATTGGCACGTGTATTT,0.03
16,TGTGACACGTGTAGGA,0.18
17,TGGGTCACGTGTATCT,0.2
18,AGCGCCACGTGCGGGG,-0.14
19,TTCGGCACGTGGAGAT,0.08
20,TGTGCCACGTGGTGCT,-0.27
21,TCGAGCACGTGGGGTT,-0.19
22,AGAATCACGTGGTTAT,0.1
23,GGTGTCACGTGCTAGG,0.02

row,Sequence,relative binding free energy [kcal/mol]
1,ATGGACACGTGGGCGG,-0.15
2,AGGGACACGTGGCTTT,-0.07
3,GATTTCACGTGTTAAT,0.41
4,GGTTACACGTGAGAGA,0.53
5,TTGTCCACGTGGTAAG,0.11
6,TCGGTCACGTGAGGAG,0.29
7,ATTTTCACGTGCTATG,0.09
8,GAATACACGTGGTTGG,0
9,GTTGTCACGTGTTTTT,0.12
10,GACTGCACGTGTATTG,0.1
11,TGAAACACGTGGCGGG,-0.11
12,AGGTACACGTGTCTTT,0.08
13,GTGTTCACGTGTAATG,0.24
14,TGTGGCACGTGAAAAG,0.1
15,TCTGTCACGTGGGGAC,0.02
16,TTGTACACGTGGAAAA,0.28
17,GGGTACACGTGAGATT,0.36
18,GGGCACACGTGCTGGG,0.02
19,GCTTTCACGTGTGTAT,0.33
20,TTATTCACGTGGGGTC,0.11
21,CGATTCACGTGGAGGT,0.45
22,CTGTGCACGTGGTAGA,-0.16
23,CTTGTCACGTGAAAGT,0.18

row,Sequence,relative binding free energy [kcal/mol]
1,CGTGACACGTGGGAGT,-0.06
2,TTTGGCACGTGTGCTC,-0.19
3,AGTAGCACGTGTTTAT,-0.04
4,TATCGCACGTGTGGAT,-0.01
5,TGCTTCACGTGGGTTT,0.27
6,ATAGCCACGTGTTTGT,-0.07
7,GGACACACGTGTTAGG,0.13
8,CTGAGCACGTGTTATT,-0.09
9,AATATCACGTGAGGGA,0.39
10,GTGAGCACGTGATATT,0.07
11,TGCGTCACGTGAGGGT,0.18
12,TAATACACGTGATTAG,0.22
13,AGGGTCACGTGAGCTG,0.35
14,GTTTCCACGTGCAGGG,0.05
15,TGGTTCACGTGGACGC,0.35
16,AATGGCACGTGCGGGC,-0.27
17,TGAGGCACGTGCGAGT,-0.14
18,GCGCGCACGTGGGTGA,-0.2
19,AGTTTCACGTGAAGGT,0.37
20,ATTAACACGTGAGGAT,0.1
21,TCTTGCACGTGTGTGT,0.03
22,TGGTGCACGTGGTGAA,-0.04
23,TTGGTCACGTGCGCGC,0.07

row,Sequence,relative binding free energy [kcal/mol]
1,AATTACACGTGGAATG,0.16
2,AGGGGCACGTGGATGC,-0.04
3,ATTGACACGTGAAAGG,0.34
4,TTTCACACGTGAGTGA,0.37
5,TAGCTCACGTGTAAGG,0.27
6,GTGGACACGTGTAGGT,0.03
7,TTCTGCACGTGTTGGT,0.09
8,ATGTCCACGTGTGGGC,0.11
9,GGGTACACGTGTCGAG,0.18
10,AGGCCCACGTGTGTTG,-0.1
11,GGTGTCACGTGAACTT,0.34
12,CGTGGCACGTGTCTGA,0.02
13,GGGATCACGTGTAGCT,0.21
14,GAGAACACGTGGGGGG,-0.01
15,AAAGTCACGTGTATGA,0.12
16,TGTTGCACGTGCTTTA,-0.09
17,AAGCTCACGTGGTTGG,0.25
18,GGGTCCACGTGAGGCT,0.13
19,TATGGCACGTGATGCG,-0.02
20,TGGGCCACGTGCAGTG,-0.08
21,GGAAACACGTGTGGTG,0.09
22,TGATGCACGTGGCTGG,-0.18
23,TGAGTCACGTGAGGCG,0.25
